Assay results from PubChem BioAssay AID485294 (National Center for Advancing Translational Sciences (NCATS), 2010).
Among all 370,000 compounds or so, about 150 (0.041%) were called active. Inconclusive results, whose numbers are uncertain, are shown with a selection of clear calls. Calls come from the whole dose curve; as a rule, active = well fitted inhibition curve with a large enough effect; inconclusive = small, poorly fitted or top-dose-only effect; inactive = flat fitted curve, though single readings scatter. Potencies of inconclusive entries are left out as doubtful fits.

These compounds were tested against Beta-lactamase (Escherichia coli (strain K12)) (UniProt P00811) (assay: qHTS Inhibitors of AmpC Beta-Lactamase (assay with detergent)). Conditions: AmpC hydrolysis of nitrocefin, absorbance 480 nm, 0.01% Triton; activity change, negative = inhibition: at 114 µM (top of the series).
Outline: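 AmpC (5.3 nM in the dispensed reagent) in 20 mM phosphate pH 7.0 with 0.01% (detergent screen) or 0.0001% Triton X-100 was preincubated with compounds for 15 min at room temperature. Nitrocefin was then added from an 800 uM solution, and hydrolysis was followed at 480 nm.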
Note: nearly all actives have a fitted effect of over 25% in size.
Potency is the fitted concentration of half-maximal effect; tags give direction and shape of the fitted curve.
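Throughout, for activity change, negative = inhibition: 0% = no-compound wells and -100% = no-enzyme wells.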

UniProt P00811, sequence (P00811 whole entry, looked up): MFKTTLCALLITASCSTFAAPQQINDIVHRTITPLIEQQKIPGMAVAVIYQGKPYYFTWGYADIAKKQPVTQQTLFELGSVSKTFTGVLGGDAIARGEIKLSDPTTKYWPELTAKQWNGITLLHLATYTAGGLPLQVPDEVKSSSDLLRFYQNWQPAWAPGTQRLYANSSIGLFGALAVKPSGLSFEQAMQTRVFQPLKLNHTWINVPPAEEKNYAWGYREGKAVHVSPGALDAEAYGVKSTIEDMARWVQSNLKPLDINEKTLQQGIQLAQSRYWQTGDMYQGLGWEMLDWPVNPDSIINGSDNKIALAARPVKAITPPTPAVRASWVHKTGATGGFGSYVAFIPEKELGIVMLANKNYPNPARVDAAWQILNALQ

SMILES | Potency | activity change, negative = inhibition
CCc1ccc(CN(C)CC(=O)Nc2sccc2C#N)cc1 | inconclusive [inhibitor, partial curve] | –
CCN1CCCC1CNC(=O)c1cc([N+](=O)[O-])c(N(C)C)cc1OC (stereo unspecified) | – | inactive: -5.19%
Cc1c(C(=O)Nc2ccccc2N2CCOCC2)sc2nc3n(c(=O)c12)CCC3 | inconclusive [inhibitor, single point] | –
N#Cc1ccc(C(=O)NC2CCCCCCC2)cc1 | – | inactive: -6.32%
Cc1nc(-c2ccc(C(=O)NCCO)cc2)cs1 | – | inactive: 2.5%
O=C(CN1CCN(c2ccccc2O)CC1)Nc1cc(S(=O)(=O)N2CCCC2)ccc1Cl | inconclusive [inhibitor, partial curve, poor fit] | –
CCOC(=O)N1CCN(C(=O)CN(Cc2ccccc2)S(C)(=O)=O)CC1 | – | inactive: 4.81%
COc1ccc(-n2c(SC)nc3ccccc3c2=O)cc1 | inconclusive [inhibitor, full curve, poor fit] | –
OC1COC(O)C(O)C1O (stereo unspecified) | inconclusive [inhibitor, full curve, poor fit] | –
CCCc1nc2cc(CC(=O)OC)ccc2o1 | inconclusive [inhibitor, full curve, poor fit] | –
O=C(Nc1ccc(Cl)cn1)c1cccc(S(=O)(=O)N2CCCC2)c1 | – | inactive: -1.28%
O=C(CSc1nc2ccc(Cl)cc2[nH]1)NC1CCCC1 | inconclusive [inhibitor, full curve, poor fit] | –
COC(=O)c1nn(-c2cccc(C(F)(F)F)c2)ccc1=O | inconclusive [inhibitor, partial curve, poor fit] | –
O=C(CN1CCC(n2nnc3cc(C(F)(F)F)ccc32)CC1)N1CCc2ccccc21 | inconclusive [inhibitor, full curve] | –
CCC(=O)N1CCCc2cc(S(=O)(=O)NCc3cccs3)ccc21 | inconclusive [inhibitor, full curve] | –
CC(=O)N1CCN(c2ccccc2NC(=O)COc2cc(C)ccc2C(C)C)CC1 | inconclusive [inhibitor, partial curve] | –
CCOC(=O)c1ccc(NC(=S)N2CCN(C)CC2)cc1 | – | inactive: -1.87%
COc1ccccc1CCNC(=O)C1CCC(=O)N(Cc2cccc(F)c2)C1 (stereo unspecified) | inconclusive [inhibitor, full curve, poor fit] | –
CCOc1ccc(NC(=O)Cn2nnc(C(=O)NCc3ccc(OC)cc3)c2N)cc1 | inconclusive [inhibitor, full curve] | –
CC1OC23CCCCC2C(C#N)(C(=N)O3)C1(C#N)C#N (stereo unspecified) | inconclusive [inhibitor, full curve, poor fit] | –
COc1cc(CO)ccc1OCc1ccc(Cl)nc1 | – | inactive: 6.03%
O=C(c1ccc(Br)o1)N1CCN(c2ccc3nnc(-c4ccc(F)cc4)n3n2)CC1 | inconclusive [inhibitor, full curve, poor fit] | –
Nc1nnc(SCC(=O)NNC(=O)c2ccc(Cl)cc2)s1 | inconclusive [inhibitor, partial curve, poor fit] | –

SMILES | Potency | activity change, negative = inhibition
CSc1ccccc1-c1nnc(NC(=O)c2ccc3c(c2)OCCO3)o1 | – | inactive: 5.64%
CCN(CC)CCCNc1nc(-c2ccccc2)nc2ccccc12 | inconclusive [inhibitor, partial curve, poor fit] | –
Cc1nnc2c3ccccc3c(-c3ccc(O)cc3)nn12 | inconclusive [inhibitor, full curve, poor fit] | –
O=C(NCCc1ccccc1)c1ccc(Cl)c([N+](=O)[O-])c1 | inconclusive [inhibitor, full curve, poor fit] | –
Cc1ccc(CNC(=O)C2CCC(CNc3c(N4CCOCC4)c(=O)c3=O)CC2)cc1 (stereo unspecified) | inconclusive [inhibitor, partial curve, poor fit] | –
CCOc1ccc(-c2[nH]ncc2-c2ccc(Cl)cc2)c(O)c1 | – | inactive: -0.901%
Cc1c(-c2ccco2)[n+](=O)c2c(n1[O-])CCC2 | – | inactive: -2.94%
O=C(C1CCCN(C2CC(=O)N(c3ccc(F)cc3)C2=O)C1)N1CCCC1 (stereo unspecified) | – | inactive: 5.31%
CC1=C(C#N)C(=O)NC(=O)/C1=C/c1ccc(-c2ccc(S(N)(=O)=O)cc2)o1 | – | inactive: -6.22%
O=C1CC(=O)N(CCNc2ncc(C(F)(F)F)cc2Cl)C(=O)N1 | inconclusive [inhibitor, single point] | –
Cc1cccc(OCC(=O)Nc2ccc3c(C)cc(=O)oc3c2)c1 | inconclusive [inhibitor, full curve, poor fit] | –
O=C1c2ccccc2C(=O)N1c1ccc(S(=O)(=O)N2CCN(c3ccccc3)CC2)cc1 | inconclusive [inhibitor, partial curve, poor fit] | –
COc1cccc(CNS(=O)(=O)c2cc3c4c(c2)CCN4C(=O)CC3)c1 | inconclusive [inhibitor, partial curve] | –
CN(C)S(=O)(=O)c1cc(NC(=O)CNCc2ccccc2)ccc1Cl | – | inactive: -1.76%
Cn1c(=O)c2cc(S(=O)(=O)NC(C(=O)NCc3ccccn3)c3ccccc3)ccc2n(C)c1=O (stereo unspecified) | inconclusive [inhibitor, partial curve, poor fit] | –
Cc1cc2ncn(C(=O)N3CCC(C)CC3)c2cc1C | – | inactive: -14.2%
O=C(Nc1nnc(/N=C/c2ccco2)s1)c1ccc(F)cc1 | inconclusive [inhibitor, partial curve] | –
CCN(CC)C(=O)c1ccc(NC(=O)c2ccc(-c3nn(C)c(=O)c4ccccc34)cc2)cc1 | inactive | –
Cn1c2c(c(O)c(-c3ccccc3)c1=O)C(=O)CC(C)(C)C2 | inconclusive [inhibitor, full curve] | –
O=C(CCc1ccccc1)Nc1ccccc1 | – | inactive: -3.94%
CCOc1ccc(CNC(=O)CCc2c(C)nn(-c3ccc(N4CCCCC4)nn3)c2C)cc1 | – | inactive: 21.5%
Cc1nnc(NC(=O)c2ccc3nccnc3c2)s1 | inconclusive [inhibitor, full curve, poor fit] | –
CCOc1ccc(CC(=NCCc2ccccc2)C2=C(O)CC(C)(C)CC2=O)cc1OCC | inconclusive [inhibitor, full curve, poor fit] | –
